Whole data set: some 110,000 compounds, median “z-score” near -0.1, cut for the highest 2% near 2. Some of the results follow.
These compounds were tested against Metabotropic glutamate receptor 8 (Rattus norvegicus) (UniProt P70579) (assay: mGluR8 Gi/Go-coupled signaling modulation – cell-based, rat, thallium flux, HTS, primary screen (AID 488969)). Conditions: HEK293 rat mGluR8, GIRK (G protein-gated inwardly rectifying potassium channel) thallium flux, FluoZin2; at 10 µM; stronger effect = higher value; submaximal glutamate (EC20) added with thallium.
UniProt P70579, sequence (P70579 whole entry, looked up): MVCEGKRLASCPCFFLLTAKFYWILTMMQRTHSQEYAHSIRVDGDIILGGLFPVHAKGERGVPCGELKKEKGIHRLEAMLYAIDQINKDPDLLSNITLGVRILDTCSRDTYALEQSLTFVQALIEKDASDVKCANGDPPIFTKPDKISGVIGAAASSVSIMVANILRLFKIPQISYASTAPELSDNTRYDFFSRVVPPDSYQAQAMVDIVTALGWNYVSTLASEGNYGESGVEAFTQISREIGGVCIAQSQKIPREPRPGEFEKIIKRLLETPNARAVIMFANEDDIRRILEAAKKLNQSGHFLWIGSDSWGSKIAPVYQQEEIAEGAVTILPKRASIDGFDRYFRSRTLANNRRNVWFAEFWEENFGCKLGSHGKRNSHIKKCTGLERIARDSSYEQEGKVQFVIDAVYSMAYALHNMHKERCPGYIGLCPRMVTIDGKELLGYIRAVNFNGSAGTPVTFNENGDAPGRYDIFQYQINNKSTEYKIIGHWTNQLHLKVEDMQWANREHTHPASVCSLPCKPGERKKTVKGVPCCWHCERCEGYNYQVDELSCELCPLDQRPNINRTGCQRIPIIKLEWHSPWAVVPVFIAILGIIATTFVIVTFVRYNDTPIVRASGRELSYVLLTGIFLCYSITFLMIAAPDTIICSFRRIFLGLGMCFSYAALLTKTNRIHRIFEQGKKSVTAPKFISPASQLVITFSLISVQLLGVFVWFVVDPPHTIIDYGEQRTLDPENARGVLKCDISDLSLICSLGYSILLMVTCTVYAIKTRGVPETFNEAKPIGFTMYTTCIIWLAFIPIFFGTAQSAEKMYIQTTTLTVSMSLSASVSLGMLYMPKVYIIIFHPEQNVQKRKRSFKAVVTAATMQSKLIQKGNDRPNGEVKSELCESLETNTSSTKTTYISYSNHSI

Compound	z-score
Cn1c(N)c(C(=O)c2cc(-c3ccccc3)nc3ccccc23)c(=O)n(C)c1=O	-0.768
COCCNc1c(-c2ccc(O)cc2)nc2ccc(Cl)cn12	-0.32
O=C(CN1C(=O)/C(=C\C=C\c2ccccc2)SC1=S)Nc1ccc(F)cc1	-0.209
CCOc1ccc(NC(=O)Cc2c(O)c3ccccc3[nH]c2=O)cc1	-0.313
CN(c1ccc(C(=O)N2CCc3ccccc3C2)cc1)S(C)(=O)=O	-0.179
COc1ccc(NC(=O)CC2COc3ccccc3O2)c(OC)c1 (stereo unspecified)	-0.37
CC(=O)Nc1nnc(SCC(=O)c2ccc3c(c2)Cc2ccccc2-3)s1	-0.175
O=C(Nc1nccs1)c1cc2c(s1)-c1ccccc1OC2	-0.242
CCOc1cc(CNCCO)cc(Br)c1OCc1ccc(Cl)cc1	0.61
O=C(CN1C(=O)C2C3C=CC(C3)C2C1=O)NCCN1CCCc2ccccc21 (stereo unspecified)	0.149
CCOC(=O)c1ccc(NC(=O)C(=O)NCC2CCCO2)cc1 (stereo unspecified)	0.691
NC(=O)C1CCN(C(=O)c2cc3n(n2)C(C(F)(F)F)CC(c2ccco2)N3)CC1 (stereo unspecified)	-0.428
Cn1c(=O)c2c(nc(NC3CCCCC3)n2CC(=O)C23CC4CC(CC(C4)C2)C3)n(C)c1=O	-0.778
CN(C)c1ccc(/C=C/C(=O)c2ccccc2)cc1[N+](=O)[O-]	-0.207
CCC(=O)Nc1nc2ccccc2n1CCN1CCOCC1	-0.386
Cc1ccc(C(=O)CSc2nnnn2C(C)C)c(C)c1	-0.197
CCCc1nc(NCC2CCCO2)c2nnn(Cc3ccccc3)c2n1 (stereo unspecified)	-0.932
CC(NC(=O)COC(=O)CC(c1ccccc1)c1ccccc1)c1ccccc1 (stereo unspecified)	-0.46
Cc1ccc(S(=O)(=O)N2CCN(CCO)CC2)cc1-c1nnc2c3ccccc3c(C)nn12	-0.156

Compound	z-score
O=C(c1ccc2snnc2c1)N1CCSCC1	-0.464
CCOc1ccc(S(=O)(=O)Nc2ccccc2C(=O)Nc2ccccc2N2CCOCC2)cc1	0.13
Cc1cc(Oc2nnnn2-c2ccccc2)ccc1Cl	-0.263
CCOC(=O)C(=O)c1csc(NC(=O)COc2ccc(N(C)S(=O)(=O)c3ccc(F)cc3)cc2)n1	-0.357
Cc1ccc(-c2nc3ccccc3[nH]2)cc1NC(=O)c1ccco1	-1.14
Cc1cc(SCc2cc(=O)[nH]c3ccccc23)nc2ccccc12	0.198
FC(F)(F)c1cc(-c2ccco2)nc(NCc2cccnc2)n1	-0.622
CCCCN(C)CCCNC(=O)c1cccc(N2CCCC2=O)c1	0.34
O=C(Oc1ccccc1)c1c(Cl)cccc1P(=O)(O)O	-0.266
Cc1ccc2nc3c(cc(C(=O)NCC4CCCO4)n3C)c(=O)n2c1 (stereo unspecified)	0.216
CCOc1ccc(N(C(C)=O)c2nc(C)cc(C)c2C#N)cc1	0.0885
Cc1ccc(S(=O)(=O)N(CC(=O)N2CCC(C)CC2)c2cccc(C)c2)cc1	-0.667
Cc1ccc(C)c(SCC(=O)OCC(=O)Nc2ccc(S(=O)(=O)N3CCOCC3)cc2)c1	-0.283
O=C(Cn1nc(-c2ccccc2)c2ccccc2c1=O)Nc1cccnc1	-0.099
CN(c1ccc(OCC(=O)OCC(=O)Nc2ccc(F)cc2)cc1)S(=O)(=O)c1ccc(Cl)cc1	-0.231
Cc1cc2c(=O)[nH]c(Cc3ccccc3)nc2s1	-0.0665
CCOC(=O)c1c(C)c(C(=O)NCCN2CCOCC2)c(C)n1C	0.127
COc1ccccc1C(=O)Nc1cccc(N(C)S(C)(=O)=O)c1	-0.0215
CCn1nc(C)c(/C=C/C(=O)Nc2ccc(C)cc2C)c1C	1.11

Compound	z-score
Cc1cccc(C(=O)OCC(=O)Nc2nccs2)c1	0.0368
Cc1ccc[n+](CC(=O)Nc2ccc([N+](=O)[O-])cc2Cl)c1	0.135
O=S(=O)(c1ccc(Cl)cc1)c1ccccn1	0.41
c1ccc2oc(-c3ccc4nc[nH]c4c3)nc2c1	-0.407
CC(C)C(=O)Nc1ccc2c(c1)nc(CCN1CCN(C)CC1)n2C	1.4
O=C(O)c1ccc(F)c(S(=O)(=O)Nc2ccccc2Cl)c1	-0.11
O=C(Nc1cc(C(F)(F)F)ccc1N1CCOCC1)c1ccc[n+]([O-])c1	-0.118
NC(=O)CN1CCCN(S(=O)(=O)c2ccc(Br)cc2)CC1	0.489
O=C1CC(c2ccc(S(=O)(=O)NCc3ccncc3)cc2)CN1 (stereo unspecified)	-0.126
OC(CNCC1CCCO1)Cn1c2ccc(Cl)cc2c2cc(Cl)ccc21 (stereo unspecified)	0.381
CC(CN(C)Cc1ccccc1)OC(=O)c1cccs1 (stereo unspecified)	0.0355
COc1ccccc1-c1cc(C(=O)N/N=C/c2sccc2C)c2ccccc2n1	1.65
CC(Sc1nc(-c2ccccc2)cs1)C(=O)Nc1ccc(Cl)cn1 (stereo unspecified)	0.126
Cc1csc(-c2cnn(-c3ccccc3)c2NC(=O)c2cccc(F)c2)n1	0.324
COC(=O)C1=CN(C)C=C(C(=O)OC)C1c1ccccc1Cl	-0.0286
O=C(CSc1nnc(NC2CCCCC2)s1)NC1CCS(=O)(=O)C1 (stereo unspecified)	1.33
COc1ccc(NS(=O)(=O)c2cccc3cccnc23)cc1	-0.41
COc1ccc(N=NC2=C(O)CC(C)(C)CC2=O)c(OC)c1	-0.0445

Reference: PubChem BioAssay AID488969 (Vanderbilt High Throughput Screening Facility, 2010)
